Test results as given in US20210147571A1, “MONOCLONAL ANTIBODY TARGETING HUMAN TUMOR STEM CELLS AND USE THEREOF” (Suzhou Bojuhua Biomedical Technology Co. Ltd, priority 2017, published 2021).

What was measured:
[1] = test system: Hetumomab target antigen on cells; assay: cell ELISA affinity of humanized chain versions; format: binding, human; settings: heavy chain mutant combined with light chain of Hetuximab
From the text: Based on the H1 heavy chain sequence, two other heavy chain mutants were designed as initial humanization: H2 and H3. The degree of humanization of these versions was in descending order. […] Since H1 was the most humanized version in which the framework regions were all humanized, H1 was finally determined as the preferred humanization molecular template.
Based on the L1 with fully humanized FR region, L2 and L3 were designed, and the degree of humanization of the three version was also in descending order. […] In order to find out which key amino acids were mutated during humanization, back mutations were performed, and nine different mutants (L4-L12) were prepared.
Therefore, L6, L11, and L12 were finally selected for optimization screening of the best light chain humanized version.
However, glycosylated isomers of Hetuzumab H1 heavy chain were confirmed by antibody sequence analysis and reductive electrophoresis analysis. In the analysis of H1 heavy chain expression products by electrophoresis, H1L6, H1L11, and H1L12 were all shown with weak sub-bands visible below the main band of the heavy chain. […] This may cause serious quality problems of uniformity, which is very unfavorable for drug development. […] H4 and H5 were combined with L11, respectively, and analyzed by electrophoresis after expression. […]

[2] = test system: Hetumomab target antigen in liver, lung, gastric cancer tissue sections; assay: immunohistochemistry of antigen-positive and negative tissue sections; format: binding, human; settings: Example 11; for staining of negative tissue sections: 10 negative sections; for staining of target antigen-positive tissue sections: 10 positive sections
[3] = test system: SNU-5 sphere cells; assay: sphere-forming inhibition (self-renewal); format: cell-based, human; settings: Table 33
Description: (§1) The main manifestation of the self-renewal ability of tumor stem cells is the ability to form spheres in serum-free medium, which is called asymmetric division, that is, when one cell divides into two daughter cells, one of the daughter cells maintains the same features as the parental cell, while the other daughter cell may continue to divide, forming normal daughter cells. […] And then Hetumomab (250 μg/mL) was used as the experimental group, and the PBS was used as a negative control group to incubate with the cells at 37° C. for 2 h, during which the cells were mixed with the antibody or the negative control once every half an hour. 500 cells in each group were inoculated into a semi-solid sphere medium (containing EGF, LIF, bFGF, etc.) containing 0.8% methylcellulose, and cultured in an ultra-low adhesion 24-well plate. 1-1.5 mL liquid medium was added every other day, and the number of spheres formed from the two groups was observed after 14 days.

[4] = test system: MHCC-97L sphere cells; assay: sphere-forming inhibition (self-renewal); format: cell-based, human; settings: Table 33
Description: as §1

[5] = test system: Bel7402-V13 sphere cells; assay: sphere-forming inhibition (self-renewal); format: cell-based, human; settings: Table 33
Description: as §1

[6] = test system: BGC-823 sphere cells; assay: sphere-forming inhibition (self-renewal); format: cell-based, human; settings: Table 33
Description: as §1

[7] = test system: MHCC97L cells; assay: flow immunofluorescence, positive cells in parental and sphere cells; format: binding, human; settings: MHCC-97L, Table 32
Description: (§2) The human liver cancer cell line Bel7402-V13 and MHCC97L cells were cultured for 5 days in a serum-free manner, and the Hetumomab^+ cells in the parental cells and in the cells from sphere culture were detected by viable cell flow fluorescence cytometry. […] That is, after serum-free culture, Hetumomab^+ cells of the liver cancer cell line were enriched.
(§3) As described above, four cell lines, SNU-5, BGC-823, MHCC-97L, and BEL7402 V13, were used to harvest both parental cells and tumor-stem-cell-rich sphere cells. […] The results are as follows:
(§4) According to the aforementioned method, four cell lines, SNU-5, BGC-823, MHCC-97L, and BEL7402 V13, were used to harvest both parental cells and tumor-stem-cell-rich sphere cells. […]

[8] = test system: Bel7402-V13 cells; assay: as above; format: binding, human; settings: BEL7402 V13, Table 32
Description: as §2, §3, §4

[9] = test system: BGC-823 cells; assay: as above; format: binding, human; settings: BGC-823, Table 32
Description: as §2, with “gastric” for “liver”, “SNU-5” for “Bel7402-V13”, “BGC-823” for “MHCC97L”, “after the” for “after”
as §3, §4

[10] = test system: SNU-5 cells; assay: as above; format: binding, human; settings: SNU-5, Table 32
Description: as §2, with “gastric” for “liver”, “SNU-5” for “Bel7402-V13”, “BGC-823” for “MHCC97L”, “after the” for “after”
as §3, §4

[11] = BEL7402 V13, antibody 160 ug/ml

B1: H1: humanized heavy chain version H1 (SEQ ID NO:32), tested with the light chain of Hetuximab (antibody)
heavy: QVTLKESGPTLVKPTQTLTLTCTFSGFSLSTSGMGVSWIRQPPGKALEWLAHIYWDDDKRYNPSLKSRLTISKDTSKNQVVLTMTNMDPVDTATYYCARSFYYYANNSFAYWGQGTLVTVSS[human IgG1 constant region left out here]
light: DIVMTQAAFSNPVTLGTSASISCRSSKSLLHSNGITYLYWFLQKPGQSPQLLIYQMSNLASGVPDRFSSSGSGTDFTLRISRVEAEDVGVYYCAQNLELYTFGGGTKLEIKRTVAAPSVFIFPPSDEQLKSGTASVVCLLNNFYPREAKVQWKVDNALQSGNSQESVTEQDSKDSTYSLSSTLTLSKADYEKHKVYACEVTHQGLSSPVTKSFNRGEC
- affinity by cell ELISA vs chimeric antibody Hetuximab [1]: retained the affinity

B2: Hetuzumab H5L6: humanized antibody, heavy chain SEQ ID NO:36 and light chain SEQ ID NO:42 (antibody)
heavy: QVTLKESGPTLVKPTQTLTLTCTFSGFSLSTSGMGVSWIRQPPGKALEWLAHIYWDDDKRYNPSLKSRLTISKDTSKNQVVLTMTNMDPVDTATYYCARSFYYYAANSFAYWGQGTLVTVSS[human IgG1 constant region left out here]
light: DIVMTQTPFSNPVTLGTSASISCRSSKSLLHSNGITYLYWFLQKPGQSPQLLIYQMSNLASGVPDRFSGSGSGTDFTLKISRVEAEDVGVYYCAQNLELYTFGQGTKVEIKRTVAAPSVFIFPPSDEQLKSGTASVVCLLNNFYPREAKVQWKVDNALQSGNSQESVTEQDSKDSTYSLSSTLTLSKADYEKHKVYACEVTHQGLSSPVTKSFNRGEC
modifications: Humanized heavy chain H5; Humanized light chain L6
- staining of negative tissue sections [2]: did not stain
- staining of target antigen-positive tissue sections [2]: positively stain
- Average number of formed spheres ([3]; SNU-5, antibody 10 ug/ml): 216
- Inhibition Rate (%) ([3]; SNU-5, antibody 10 ug/ml): 11.8%
- Average number of formed spheres ([3]; SNU-5, antibody 20 ug/ml): 201
- Inhibition Rate (%) ([3]; SNU-5, antibody 20 ug/ml): 18.0%
- Average number of formed spheres ([3]; SNU-5, antibody 40 ug/ml): 176
- Inhibition Rate (%) ([3]; SNU-5, antibody 40 ug/ml): 28.2%
- Average number of formed spheres ([3]; SNU-5, antibody 80 ug/ml): 151.5
- Inhibition Rate (%) ([3]; SNU-5, antibody 80 ug/ml): 38.2%
- Average number of formed spheres ([3]; SNU-5, antibody 160 ug/ml): 124
- Inhibition Rate (%) ([3]; SNU-5, antibody 160 ug/ml): 49.4%
- Average number of formed spheres ([4]; antibody 10 ug/ml): 214
- Inhibition Rate (%) ([4]; antibody 10 ug/ml): 11.2%
- Average number of formed spheres ([4]; antibody 20 ug/ml): 186
- Inhibition Rate (%) ([4]; antibody 20 ug/ml): 22.8%
- Average number of formed spheres ([4]; antibody 40 ug/ml): 158.5
- Inhibition Rate (%) ([4]; antibody 40 ug/ml): 34.2%
- Average number of formed spheres ([4]; antibody 80 ug/ml): 138
- Inhibition Rate (%) ([4]; antibody 80 ug/ml): 42.7%
- Average number of formed spheres ([4]; antibody 160 ug/ml): 113
- Inhibition Rate (%) ([4]; antibody 160 ug/ml): 53.1%
- Average number of formed spheres ([5]; BEL7402 V13, antibody 10 ug/ml): 201
- Inhibition Rate (%) ([5]; BEL7402 V13, antibody 10 ug/ml): 12.6%
- Average number of formed spheres ([5]; BEL7402 V13, antibody 20 ug/ml): 189
- Inhibition Rate (%) ([5]; BEL7402 V13, antibody 20 ug/ml): 17.8%
- Average number of formed spheres ([5]; BEL7402 V13, antibody 40 ug/ml): 156
- Inhibition Rate (%) ([5]; BEL7402 V13, antibody 40 ug/ml): 32.2%
- Average number of formed spheres ([5]; BEL7402 V13, antibody 80 ug/ml): 121
- Inhibition Rate (%) ([5]; BEL7402 V13, antibody 80 ug/ml): 47.8%
- Average number of formed spheres [5, 11]: 109
- Inhibition Rate (%) [5, 11]: 52.6%
- Average number of formed spheres ([6]; BGC-823, antibody 20 ug/ml): 197
- Inhibition Rate (%) ([6]; BGC-823, antibody 20 ug/ml): 22.1%
- Average number of formed spheres ([6]; BGC-823, antibody 40 ug/ml): 185
- Inhibition Rate (%) ([6]; BGC-823, antibody 40 ug/ml): 26.8%
- Average number of formed spheres ([6]; BGC-823, antibody 80 ug/ml): 160
- Inhibition Rate (%) ([6]; BGC-823, antibody 80 ug/ml): 36.8%
- Average number of formed spheres ([6]; BGC-823, antibody 160 ug/ml): 132
- Inhibition Rate (%) ([6]; BGC-823, antibody 160 ug/ml): 47.8%
- positive rate, Parent [7]: 7.35%
- positive rate, Sphere [7]: 16.17%
- positive rate, Parent [8]: 7.12%
- positive rate, Sphere [8]: 12.03%
- positive rate, Parent [9]: 3.84%
- positive rate, Sphere [9]: 6.26%
- positive rate, Parent [10]: 3.68%
- positive rate, Sphere [10]: 6.20%

B3: Hetuzumab H5L12: humanized antibody of heavy chain version H5 (SEQ ID NO:36) and light chain version L12 (SEQ ID NO:48) (antibody)
heavy: QVTLKESGPTLVKPTQTLTLTCTFSGFSLSTSGMGVSWIRQPPGKALEWLAHIYWDDDKRYNPSLKSRLTISKDTSKNQVVLTMTNMDPVDTATYYCARSFYYYAANSFAYWGQGTLVTVSS[human IgG1 constant region left out here]
light: DIVMTQTPFSLPVTLGQPASISCRSSKSLLHSNGITYLYWFLQKPGQSPQLLIYQMSNLASGVPDRFSGSGSGTDFTLKISRVEAEDVGVYYCAQNLELYTFGQGTKVEIKRTVAAPSVFIFPPSDEQLKSGTASVVCLLNNFYPREAKVQWKVDNALQSGNSQESVTEQDSKDSTYSLSSTLTLSKADYEKHKVYACEVTHQGLSSPVTKSFNRGEC
modifications: Humanized heavy chain H5; Humanized light chain L12
- staining of negative tissue sections [2]: did not stain
- staining of target antigen-positive tissue sections [2]: positively stain
- positive rate, Parent [7]: 5.25%
- positive rate, Sphere [7]: 10.61%
- positive rate, Parent [8]: 5.38%
- positive rate, Sphere [8]: 8.39%
- positive rate, Parent [9]: 2.90%
- positive rate, Sphere [9]: 4.44%
- positive rate, Parent [10]: 2.63%
- positive rate, Sphere [10]: 4.10%
